From paper PMC13263796 come the findings set out here.

Substitutions are numbered along the chain they refer to. These are yes or no findings as the source states them, for the method shown. Some entries that bind do so weakly or less than the wild type. Tags and fused reporters may be left off the sequences shown.

For this test, the target named is T1, BD-Atg9 (S. cerevisiae) (UniProt Q12142).
T1 sequence: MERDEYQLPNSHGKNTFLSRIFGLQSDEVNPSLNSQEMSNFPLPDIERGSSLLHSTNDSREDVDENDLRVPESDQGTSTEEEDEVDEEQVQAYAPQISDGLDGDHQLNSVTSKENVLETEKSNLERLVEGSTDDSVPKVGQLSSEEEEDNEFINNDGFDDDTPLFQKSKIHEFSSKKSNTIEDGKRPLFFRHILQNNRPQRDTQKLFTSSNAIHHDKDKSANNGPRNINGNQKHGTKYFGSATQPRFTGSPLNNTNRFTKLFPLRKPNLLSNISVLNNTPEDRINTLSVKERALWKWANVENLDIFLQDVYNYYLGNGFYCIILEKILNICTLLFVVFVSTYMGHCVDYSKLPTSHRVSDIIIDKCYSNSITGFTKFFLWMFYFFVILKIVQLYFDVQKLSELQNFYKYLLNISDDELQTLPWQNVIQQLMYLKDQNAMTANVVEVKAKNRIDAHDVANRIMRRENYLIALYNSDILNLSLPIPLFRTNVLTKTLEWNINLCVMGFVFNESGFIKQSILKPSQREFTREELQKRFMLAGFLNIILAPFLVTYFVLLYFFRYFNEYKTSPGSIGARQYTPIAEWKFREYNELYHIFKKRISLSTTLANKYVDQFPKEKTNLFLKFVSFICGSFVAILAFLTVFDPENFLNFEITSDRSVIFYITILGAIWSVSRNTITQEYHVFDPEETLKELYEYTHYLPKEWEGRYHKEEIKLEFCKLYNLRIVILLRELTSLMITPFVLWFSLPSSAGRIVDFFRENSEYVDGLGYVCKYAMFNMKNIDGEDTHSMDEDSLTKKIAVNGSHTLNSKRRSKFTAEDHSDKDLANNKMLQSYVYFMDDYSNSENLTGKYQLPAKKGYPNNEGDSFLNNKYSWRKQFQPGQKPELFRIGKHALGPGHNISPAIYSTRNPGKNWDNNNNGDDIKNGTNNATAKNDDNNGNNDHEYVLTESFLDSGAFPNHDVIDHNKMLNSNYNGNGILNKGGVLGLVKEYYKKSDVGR
As to the kind of experiment: two-hybrid; BD-ATG9 with AD-ATG11 or mutants in multiple-knockout yeast YCY149 (lacking 25 ATG genes); growth on SMD -ura -leu -his with 1.5 mM 3-amino-triazol, 4-5 days at 30°C.

B1: AD-Atg11_IA3 (protein, UniProt Q12527 1-575; P01094 2-53; Q12527 628-1178)
chain: MADADEYSTAPTQQEITPLQTTATIINAISGECITTNVDFFVSLDKFKQFIARKWKIPPDQLLILLPYGNKLKPSMFKELLINRSFTLNDFYVYDRRLFSLVSKPTPTNLLTSKDSNPMNSPNSNDLTETLEYLIKNSHISQYQGSDTIMIKPMPSPLEDADVDLSRLNYHSVTSLLTTNLGWLSALEIDVHYFKSLIPDIIAHIKRIFDGLTVCSQYLKLYCFDVESLYNSNVQFLNQLVDNGMTSKWEKCFNDTLSKLTALEGDSLQKFINIESLLENEKSVKILNHSINGKLNKIKREIDENASFRDIITVNIDRLRQMFTPNESKFELEDQMAESFEVLVSEMRTRSRNVLDKEEEEFNSQEFLKSMNVMLEKDKKESVKTLFTISQALYSQIGELIDLKKSLQKHAVAILGNIAFTQMEILGIKRLLLNECNKDLELYKKYEVEFAQVEDLPLIYGLYLIEKYRRLSWFQQILSFISNFNQDLELFKQNELRTRNKWVKNFGSIATVFCEDLLSSSDFKRLNEYHSHTSPPNEDEEDENENSIANYRQDLVKVSQAIDNYMTQIKETDVSNTDQQKVSEIFQSSKEKLQGDAKVVSDAFKKMASQDKDGKTTDADESEKHNYGYKTRIKKLESLLHEFQYSDIGHWPQGVLNTHLKPFRGSATSINKKKFLGASVLLEPANISEVNIDSVSQANNHQIQELESNVDDLLHQLQLLKEENNRKSMQISEMGKKISDLEVEKTAYRETLTNLNQELARLTNEEQSHRTEIFTLNASFKKQLNDIISQDNEKIEKLTGDYDDVSKSRERLQMDLDESNKKHEQEVNLLKADIERLGKQIVTSEKSYAETNSSSMEKGEKFETIPLAEDPGRENQISAYTQTLQDRIFDIISTNIFILENIGLLLTFDNNNNIQIRRVKGLKKGTAQSNILDESTQMLDAHDNSLIKSPVFQKLKDEYELIKSVANGSEKDTQQSIFLGNITQLYDNKLYEVAVIRRFKDIETLAKKLTKENKIKRTLLERFQREKVTLRNFQIGDLALFLPTRENVNSVGSMSSSTSSLSSSFSSVDLSTPPPLDAMSIQSSPSVIHSNVINQASISGRDKNKLMRPWAAFTAFEESTRYFLKDEKGLTKGKEWFVGRIVTLEHFVADSPSNNPFRLPKGSVWFQVTAVVVSYQGV
On to B1, for which the binding result is “binds”.

B2: AD-Atg11 (protein, UniProt Q12527 1-1178)
chain: MADADEYSTAPTQQEITPLQTTATIINAISGECITTNVDFFVSLDKFKQFIARKWKIPPDQLLILLPYGNKLKPSMFKELLINRSFTLNDFYVYDRRLFSLVSKPTPTNLLTSKDSNPMNSPNSNDLTETLEYLIKNSHISQYQGSDTIMIKPMPSPLEDADVDLSRLNYHSVTSLLTTNLGWLSALEIDVHYFKSLIPDIIAHIKRIFDGLTVCSQYLKLYCFDVESLYNSNVQFLNQLVDNGMTSKWEKCFNDTLSKLTALEGDSLQKFINIESLLENEKSVKILNHSINGKLNKIKREIDENASFRDIITVNIDRLRQMFTPNESKFELEDQMAESFEVLVSEMRTRSRNVLDKEEEEFNSQEFLKSMNVMLEKDKKESVKTLFTISQALYSQIGELIDLKKSLQKHAVAILGNIAFTQMEILGIKRLLLNECNKDLELYKKYEVEFAQVEDLPLIYGLYLIEKYRRLSWFQQILSFISNFNQDLELFKQNELRTRNKWVKNFGSIATVFCEDLLSSSDFKRLNEYHSHTSPPNEDEEDENENSIANYRQDLVKVSQAIDNYMTQIKETDVSEPIIDLLSKTLFETKRFHIIYSNFKNNNNNSSNGNSISPEGSIALKSDDVVKGYKTRIKKLESLLHEFQYSDIGHWPQGVLNTHLKPFRGSATSINKKKFLGASVLLEPANISEVNIDSVSQANNHQIQELESNVDDLLHQLQLLKEENNRKSMQISEMGKKISDLEVEKTAYRETLTNLNQELARLTNEEQSHRTEIFTLNASFKKQLNDIISQDNEKIEKLTGDYDDVSKSRERLQMDLDESNKKHEQEVNLLKADIERLGKQIVTSEKSYAETNSSSMEKGEKFETIPLAEDPGRENQISAYTQTLQDRIFDIISTNIFILENIGLLLTFDNNNNIQIRRVKGLKKGTAQSNILDESTQMLDAHDNSLIKSPVFQKLKDEYELIKSVANGSEKDTQQSIFLGNITQLYDNKLYEVAVIRRFKDIETLAKKLTKENKIKRTLLERFQREKVTLRNFQIGDLALFLPTRENVNSVGSMSSSTSSLSSSFSSVDLSTPPPLDAMSIQSSPSVIHSNVINQASISGRDKNKLMRPWAAFTAFEESTRYFLKDEKGLTKGKEWFVGRIVTLEHFVADSPSNNPFRLPKGSVWFQVTAVVVSYQGV
For B2, the binding result is given as “binds”.

B3: AD-Atg11 DLL (protein, UniProt Q12527 1-1178)
chain: B2 chain with D516A, L517A, L526A
B3: the binding entry is given as “binds”.

B4: AD-Atg11 EDLLS (protein, UniProt Q12527 1-1178)
chain: B2 chain with E515A, D516A, L517A, L518A, S519A
Turning to B4, the binding result is reported as “binds”.

B5: AD-Atg11 QNLNK (protein, UniProt Q12527 1-1178)
chain: B2 chain with Q493A, N494A, L496A, N500A, K501A
Turning to B5, the binding result is recorded as “binds”.

B6: AD-Atg11 QQ (protein, UniProt Q12527 1-1178)
chain: B2 chain with Q475A, Q476A
Consider B6, for which the binding result was “binds”.

B7: AD-Atg11 YDLL (protein, UniProt Q12527 1-1178)
chain: B2 chain with Y468A, D516A, L517A, L526A
On to B7, for which the binding entry is listed as “binds weakly”.

B8: AD-Atg11 TV (protein, UniProt Q12527 1-1178)
chain: B2 chain with T511A, V512A
Consider B8, for which the binding result is recorded as “binds”.

B9: AD-Atg11 DL (protein, UniProt Q12527 1-1178)
chain: B2 chain with D516A, L517A
In the case of B9, the binding entry is “binds”.

B10: AD-Atg11 YDL (protein, UniProt Q12527 1-1178)
chain: B2 chain with Y468A, D516A, L517A
B10: the binding result is recorded as “binds”.
